Reference: PubChem BioAssay AID686978 (National Center for Advancing Translational Sciences (NCATS), 2013)
The whole screen tested about 420,000 compounds, of which about 64,000 (15%) were called active. The inconclusive results got no clear call from the source; some entries with a clear call stand among them for comparison. Calls follow the shape of the dose curve; as a rule, active = well fitted inhibition curve with a large enough effect; inconclusive = small, poorly fitted or top-dose-only effect; inactive = flat fitted curve, though single readings scatter. No potency is given beside an inconclusive call; the fits are too rough.

Assay: qHTS for Inhibitors of human tyrosyl-DNA phosphodiesterase 1 (TDP1): qHTS in cells in absence of CPT; also: nearly all actives have a fitted effect of over 55% in size
Details: DT40 Tdp1-/- hTDP1 cells, no CPT, ATP luminescence, 48 h; activity change, negative = growth inhibition: at 46.2 µM (top of the series) unless noted
Method in brief: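 Chicken DT40 Tdp1-/- cells stably complemented with human TDP1 were seeded at 400 cells/well with DMSO in place of 20 nM camptothecin. After compound pinning, cells grew at least 48 hr at 37 °C; viability read by CellTiter-Glo luminescence.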
% is scaled to controls: 0 for no effect and ±100 for the full control effect; potency is read from the fitted curve at half-maximal effect; tags tell the direction and shape of the fitted curve.

SMILES	Potency	activity change, negative = growth inhibition
CC(C)CCn1c(=O)c2sccc2n2c(CCCC(=O)NC(C)c3ccccc3)nnc12 (centres undefined)	inconclusive [inhibitor, single point]	–
CC(=O)c1cccc(NC(=O)CSc2nc3c(=O)n(C)c(=O)n(C)c3n2C)c1	inactive	–
COc1ccc2oc(C(=O)OC(C)C(=O)N3C(C)CCCC3C)c(C)c2c1 (centres undefined)	active: 20.6 µM	–
Cc1ccc(NC2CCCN(C(=O)c3cc4ncccn4n3)C2)cc1C (centres undefined)	inactive	–
COc1ccc(Cl)cc1NC(=O)CN(C)C(=O)c1cccc2cccnc12	inconclusive [inhibitor, single point]	–
COc1cccc(CNc2ccc3[nH]c(=O)[nH]c3c2)c1OCc1ccc(F)cc1	inconclusive [inhibitor, single point]	–
CC1(C)C(=O)Nc2ccccc2N1C(=O)COc1ccc(C#N)cc1	inactive	–
CS(=O)(=O)N1CCC2(CC1)CN(c1ccccc1)C2	inconclusive [inhibitor, partial curve]	–
COc1ccc(Nc2cc(C(=O)NCCCN3CCN(C)CC3)c3ccccc3n2)cc1	inactive	–
CC(C)C(c1nnnn1C1CCCCC1)N1CCc2ccccc21 (centres undefined)	inconclusive [inhibitor, single point]	–
COc1ccc(NC(=O)CSC(C)c2nc3ccccc3c(=O)[nH]2)cc1 (centres undefined)	inactive	–
CCCNC(=O)N1CCC(c2nc3ccccc3s2)CC1	inactive	–
COCC(C)n1c(C)cc(C(=O)CSc2nc(C)c(C)c(C)n2)c1C (centres undefined)	active: 14.6 µM	–
Cc1ccc(NC(=O)c2ccc(NS(=O)(=O)c3c(C)noc3C)cc2)cc1C	inconclusive [inhibitor, single point]	–
NS(=O)(=O)c1ccc(NCCCn2ccnc2)c([N+](=O)[O-])c1	inactive	–
Cc1ccc(CCNC(=O)c2cc3c(=O)n(C)c4ccccc4c3n2C)cc1	inconclusive [inhibitor, single point]	–
Cc1csc2nc(COC(=O)c3cccc(N(C)C)c3)cc(=O)n12	inconclusive [inhibitor, partial curve]	–
CCc1cccc(N2C(=O)N(Cc3c(F)cccc3Cl)c3ccccc3S2(=O)=O)c1	inconclusive [inhibitor, single point]	–
CCn1cc(C(=O)Nc2ccc(C(C)C)cc2)c2cc(OC)c(OC)cc2c1=O	active: 16.4 µM	–
O=S(=O)(Nc1cccc(-c2cn3c(n2)SCC3)c1)c1ccc(F)cc1F	inconclusive [inhibitor, single point]	–
COc1ccc(CCNC(=O)CS(=O)(=O)Cc2nc(-c3ccc(C)cc3)oc2C)cc1OC	inconclusive [inhibitor, partial curve, poor fit]	–
O=C1CC(C(=O)O)S/C(=N\N=C\c2ccc(Br)cc2)N1 (centres undefined)	inactive	–
Cc1ccc2cc3cc(C(=O)N(C)c4ccccc4C)oc3nc2c1	inconclusive [inhibitor, partial curve]	–

SMILES	Potency	activity change, negative = growth inhibition
CCc1nn(C(CC)C(=O)NCc2cccc(OC)c2OC)c(=O)c2cc3occc3n12 (centres undefined)	active: 18.4 µM	–
Cn1c(=O)n(C)c2cc(NC(=O)c3ccccc3NS(C)(=O)=O)ccc21	inactive	–
Cc1ccc(C(C(=O)NC2CCCCC2)N(C(=O)c2csnn2)c2ccccc2F)o1 (centres undefined)	–	inconclusive: -34.4% [inhibitor]
CCOc1ccc(-n2cc(-c3ccccc3)c3c(=S)nc[nH]c32)cc1	inconclusive [inhibitor, single point]	–
COc1ccc2cnn(-c3ccccc3)c(=O)c2c1OC	inconclusive [inhibitor, single point]	–
CCOC(=O)c1ccc(NC(=O)c2c(NCc3cc(OC)ccc3OC)sc3c2CCC3)cc1	inconclusive [inhibitor, single point]	–
Cc1ncoc1C(=O)N1CCc2c([nH]c3ccccc23)C1C(C)(C)C (centres undefined)	inconclusive [inhibitor, single point]	–
C=CCC[C@H](Cc1ccc(F)cc1)C(=O)OC[C@@H](NC(=O)[C@H](CC=C)CC(=O)NCCO)c1ccccc1	inconclusive [inhibitor, single point]	–
CCc1cnc2c(c1SCCC(C)C)c(=O)n(C)c(=O)n2C	inconclusive [inhibitor, single point]	–
O=c1oc2ccccc2cc1-c1nnc(-c2cccc(Br)c2)o1	inactive	–
N#CC1=C(SCC(=O)Nc2ccccc2)NC(=O)CC1c1ccc(O)cc1 (centres undefined)	inconclusive [inhibitor, single point]	–
CCOC(=O)NC(=O)CSc1nc2ccc([N+](=O)[O-])cc2[nH]1	inactive	–
O=C(c1ccc2c(=O)n(Cc3ccco3)c(=S)[nH]c2c1)N1CCN(Cc2ccccc2)CC1	inconclusive [inhibitor, single point]	–
CCO[C@@H]1OC(C(=O)N2CCCCCCC2)=C[C@H](c2cn(C(C)=O)c3ccccc23)[C@H]1CCCO	inconclusive [inhibitor, single point]	–
COCCN1C[C@@H](CO)O[C@@H](n2cnc3c(N4CCN(c5ccccc5)CC4)ncnc32)C1	–	inconclusive: -35.8% [inhibitor]
CCN(C(=O)CN1CCC(C(=O)OC)CC1)c1c(N)n(Cc2ccccc2)c(=O)[nH]c1=O	inactive	–
Nc1c(C(=O)Nc2ccccc2)sc2nc(-c3ccco3)ccc12	active: 18.4 µM	–
N#Cc1nc(-c2ccc(OCc3ccc(Cl)cc3)cc2)oc1N1CCCCC1	inconclusive [inhibitor, single point]	–
Cn1c(=O)c2c(O)c(Cc3ccccc3)c(=O)n(C)c2n(C)c1=O	inactive	–
Cc1ccc(Cl)cc1NC(=O)C(=O)N/N=C/c1ccc2c(c1)OCO2	inactive	–
O=C1CC(c2cccc(Cl)c2)CC(O)=C1C=Nc1cccc(Cl)c1 (centres undefined)	inactive	–
Cc1nc2ccccc2c(-c2ccccc2)c1CC(=O)O	–	inconclusive: -30.4% [inhibitor]
Fc1ccc(NC(=S)Nc2ccccc2OC(F)F)cc1Cl	inconclusive [inhibitor, single point]	–

SMILES	Potency	activity change, negative = growth inhibition
COc1ccc(C(=O)N/C(=C/c2cccc3ccccc23)C(=O)NCCc2c[nH]c3ccccc23)cc1OC	inconclusive [inhibitor, full curve]	–
COc1ccc(N2CCN(Cc3nc(N)nc(N4CCCc5ccccc54)n3)CC2)cc1	inconclusive [inhibitor, partial curve]	–
CCc1cccc(OCC(=O)Nc2ccc(S(=O)(=O)Nc3ccccn3)cc2)c1	inconclusive [inhibitor, single point]	–
CC1(C(=O)NCC2CC2)Cc2c(-c3cccc(C(N)=O)c3)ccnc2O1 (centres undefined)	inconclusive [inhibitor, single point]	–
CSc1nnc(-c2sccc2OCc2ccc(C)cc2)n1C	inconclusive [inhibitor, single point]	–
COc1cc(OC)c2c(-c3ccccc3)cc(C3CCCCC3)nc2c1	inconclusive [inhibitor, single point]	–
COc1ccc(/C=N/N=C2/SCC(=O)N2Cc2ccccc2)cc1	inconclusive [inhibitor, single point]	–
COCCCNC(=O)CSc1nc2ccccc2c(=O)n1CCc1ccc(S(N)(=O)=O)cc1	inconclusive [inhibitor, full curve, poor fit]	–
COc1ccc(CNC(=O)c2cc(-c3ccncc3)nc3c(C)cc(C)cc23)cc1OC	inconclusive [inhibitor, single point]	–
Cc1cc(/C=N/NC(=O)CC2(C)OCCO2)c(C)n1-c1ccc(Cl)c(Cl)c1	inconclusive [inhibitor, partial curve]	–
COc1cccc(/C=N/NC(=O)c2cc(-c3ccccn3)nc3ccccc23)c1O	active: 8.2 µM	–
COc1ccc(CC(NC(C)=O)C(=O)NC2CCN(S(=O)(=O)c3ccc(NC(C)=O)cc3)CC2)cc1OC (centres undefined)	inconclusive [inhibitor, partial curve, poor fit]	–
Cc1ccc(C)c(SCC(=O)NNC(=O)c2ccccc2)c1	inconclusive [inhibitor, single point]	–
CN(CCc1ccccn1)c1ccccc1	inconclusive [inhibitor, single point]	–
Fc1ccc(C2=CC(c3ccc(Br)o3)n3ncnc3N2)cc1 (centres undefined)	inconclusive [inhibitor, single point]	–
O=C(NCC1CCCO1)c1ccc(NC(=O)c2ccc(Br)cc2)cc1 (centres undefined)	–	inconclusive: -33.8% [inhibitor]
O=C(c1sc2ccccc2c1Cl)N(Cc1ccccc1)C1CCS(=O)(=O)C1 (centres undefined)	inconclusive [inhibitor, single point]	–
Cc1cn(C2OC(COC(=O)c3ccccc3)C(O)C2O)c(=O)[nH]c1=O (centres undefined)	inactive	–
O=C(C1CC1)N1CCN(c2ccc(O)cc2)CC1	inconclusive [inhibitor, single point]	–
CC(C)OCCCNC(=O)c1nn(C)c2c1CSc1ccccc1-2	active: 20.6 µM	–
S=C(NCCc1ccccc1)Nc1nccs1	active: 14.6 µM	–
COCOc1cccc(CN2CCC2(C)C(=O)Nc2ccc(C)cc2)c1 (centres undefined)	inconclusive [inhibitor, single point]	–
CC(C)c1onc(C(=O)NCc2ccc(F)cc2)c1[N+](=O)[O-]	inconclusive [inhibitor, single point]	–
